The supplement of paper PMC12297408
Where a name gives a salt, the structure may show the parent alone. Screen size: about 1,300 compounds; about 40 (3%) showed activity. The list shows a part of the results.

Tested on: Plasmodium falciparum NF54/iGP1_RE9H ulg8 stage V gametocytes
Assay: gametocyte viability (luciferase signal relative to DMSO control) (% of DMSO control); higher = less gametocytocidal activity, active = 50 or less
Settings: exposure time: 72 h
Method in brief: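 Gametocyte viability is reported relative to the average of DMSO vehicle wells on the same plate. The assay used day-12 stage V NF54/iGP1_RE9Hulg8 gametocytes at ~2.5% gametocytemia and 3% hematocrit, in 0.5% Albumax II medium, added to 96-well plates of compounds spotted in nanolitre volumes for final 10 µM or 1 µM, one well each. After 72 h at 37 °C, 90 µl was mixed with 10 µl D-luciferin (30 mg/ml), and luminescence was recorded with an IVIS Lumina II.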

SMILES | gametocyte viability (concentration: 1 µM) | gametocyte viability (concentration: 10 µM)
Clc1ccc(C(Cn2ccnc2)OCc2ccsc2Cl)c(Cl)c1 (stereo not given) [Tioconazole] | inactive: 86.8 | inactive: 71.1
C[C@](N)(Cc1ccc(O)c(O)c1)C(=O)O [Methyldopa (L,-)] | inactive: 82.6 | inactive: 83.9
c1cnc(N2CCN(Cc3ccc4c(c3)OCO4)CC2)nc1 [Piribedil hydrochloride] | inactive: 92.7 | inactive: 92.5
CCOC(=O)O[C@]1(C(=O)OCCl)CC[C@H]2[C@@H]3CCC4=CC(=O)C=C[C@]4(C)[C@H]3[C@@H](O)C[C@@]21C [Loteprednol etabonate] | inactive: 88.2 | inactive: 85
CCCc1nc2c(C)cc(-c3nc4ccccc4n3C)cc2n1Cc1ccc(-c2ccccc2C(=O)O)cc1 [Telmisartan] | inactive: 80 | inactive: 88.2
CCCCOC(=O)c1ccc(O)cc1 [Butylparaben] | inactive: 84.3 | inactive: 78.7
N=C(N)N1CCc2ccccc2C1 [Debrisoquin sulfate] | inactive: 80.3 | inactive: 79.7
CC(=O)/N=c1/sc(S(N)(=O)=O)nn1C [Methazolamide] | inactive: 80.7 | inactive: 86.9
CCCCC1C(=O)N(c2ccccc2)N(c2ccccc2)C1=O [Phenylbutazone] | inactive: 91 | inactive: 85.4
CNCC[C@@H](Oc1ccccc1C)c1ccccc1 [Tomoxetine hydrochloride] | inactive: 82.6 | inactive: 87.1
O=C(CCCCC(=O)Nc1c(I)cc(I)c(C(=O)O)c1I)Nc1c(I)cc(I)c(C(=O)O)c1I [Iodipamide] | inactive: 92.7 | inactive: 95.8
O=C(O)Cc1cc(I)c(Oc2ccc(O)c(I)c2)c(I)c1 [Tiratricol, 3,3',5-triiodothyroacetic acid] | inactive: 91 | inactive: 93.4
COCCCOc1ccnc(C[S+]([O-])c2nc3ccccc3[nH]2)c1C (stereo not given) [Rabeprazole Sodium salt] | inactive: 83.8 | inactive: 80.3
CC(=O)OCC(=O)[C@@]12OC3(CCCC3)O[C@@H]1C[C@H]1[C@@H]3CCC4=CC(=O)C=C[C@]4(C)[C@@]3(F)[C@@H](O)C[C@@]12C [Amcinonide] | inactive: 93.1 | inactive: 92.1
N=C(N=C(N)N)N1CCOCC1 [Moroxidine hydrochloride] | inactive: 83.9 | inactive: 87.9
Cc1c(F)c(N2CCNC(C)C2)cc2c1c(=O)c(C(=O)O)cn2C1CC1 (stereo not given) [Grepafloxacin] | inactive: 93.9 | inactive: 95.3
O=C(Nc1ccccc1)OCC(CN1CCCCC1)OC(=O)Nc1ccccc1 (stereo not given) [Diperodon hydrochloride] | inactive: 88.6 | inactive: 91.5
CCCC(=O)Nc1ccc(OCC(O)CNC(C)C)c(C(C)=O)c1 (stereo not given) [Acebutolol hydrochloride] | inactive: 99.1 | inactive: 91.7
CN1[C@@H]2CC[C@H]1C[C@@H](OC(c1ccccc1)c1ccccc1)C2 [Benztropine mesylate] | inactive: 85.2 | inactive: 88.5
CC(=O)Nc1ccc(OCC(O)CNC(C)C)cc1 (stereo not given) [Practolol] | inactive: 94.9 | inactive: 88.3

SMILES | gametocyte viability (concentration: 1 µM) | gametocyte viability (concentration: 10 µM)
Cc1cccc(C)c1NC(=O)CN1CCN(CCCC(c2ccc(F)cc2)c2ccc(F)cc2)CC1 [Lidoflazine] | inactive: 80.9 | inactive: 86.1
CC(=O)O[C@]1(C(C)=O)CC[C@H]2[C@@H]3C=C(C)C4=CC(=O)CC[C@]4(C)[C@H]3CC[C@@]21C [Megestrol acetate] | inactive: 93.8 | inactive: 96.9
Nc1nnc(-c2cccc(Cl)c2Cl)c(N)n1 [Lamotrigine] | inactive: 90.9 | inactive: 96.5
CC[C@@]1(O)C(=O)OCc2c1cc1n(c2=O)Cc2cc3c(CN(C)C)c(O)ccc3nc2-1 [Topotecan] | inactive: 82.2 | inactive: 76.8
Clc1cc(Cl)c(OCC#CI)cc1Cl [Haloprogin] | inactive: 82.8 | inactive: 63.6
Nc1nc(=O)[nH]cc1F [Flucytosine] | inactive: 84.3 | inactive: 89.3
CCOCCn1c(N2CCCN(C)CC2)nc2ccccc21 [Emedastine] | inactive: 93.5 | inactive: 94.4
Cc1cccn2c(=O)c(-c3nnn[nH]3)cnc12 [Pemirolast potassium] | inactive: 80.6 | inactive: 84.7
CC[C@H](C)C(=O)O[C@H]1C[C@H](O)C=C2C=C[C@H](C)[C@H](CC[C@@H](O)C[C@@H](O)CC(=O)O)[C@H]21 [Pravastatin] | inactive: 99.2 | inactive: 94.8
CC(C)(C)NCC(O)COc1cccc2c1CC(O)C(O)C2 (stereo not given) [Nadolol] | inactive: 88.2 | inactive: 80.7
CC(=O)NC[C@H]1CN(c2ccc(N3CCOCC3)c(F)c2)C(=O)O1 [Linezolid] | inactive: 97.4 | inactive: 95.5
Cc1nccn1CC1CCc2c(c3ccccc3n2C)C1=O (stereo not given) [Ondansetron Hydrochloride] | inactive: 96.9 | inactive: 90.8
COc1ccc2c(c1)c(CC(=O)OCC(=O)O)c(C)n2C(=O)c1ccc(Cl)cc1 [Acemetacin] | inactive: 87.6 | inactive: 85.7
Cc1cccc(Nc2ccncc2S(=O)(=O)NC(=O)NC(C)C)c1 [Torsemide] | inactive: 91.2 | inactive: 89.6
C[C@]12CC[C@H]3[C@@H](CCC4=CC(=O)CC[C@@]43C)[C@@H]1CC[C@@H]2C(=O)CO [Deoxycorticosterone] | inactive: 88.9 | inactive: 75.7
COc1cc(NS(=O)(=O)c2ccc(N)cc2)nc(OC)n1 [Sulfadimethoxine] | inactive: 90.7 | inactive: 82.2
CC[N+](CC)(CC(=O)Nc1c(C)cccc1C)Cc1ccccc1 [Denatonium benzoate] | inactive: 89.7 | inactive: 92.8
CC1(C)O[C@@H]2[C@@H](CO[C@@]3(COS(N)(=O)=O)OC(C)(C)O[C@@H]23)O1 [Topiramate] | inactive: 91.4 | inactive: 96
CC(C)Cn1cnc2c(N)nc3ccccc3c21 [Imiquimod] | inactive: 88.4 | inactive: 85.1
NC(=O)N1c2ccccc2CC(=O)c2ccccc21 [Oxcarbazepine] | inactive: 83.9 | inactive: 88.3

SMILES | gametocyte viability (concentration: 1 µM) | gametocyte viability (concentration: 10 µM)
COc1ccc2c3c1O[C@H]1C[C@@H](O)C=C[C@@]31CCN(C)C2 [Galanthamine hydrobromide] | inactive: 88.4 | inactive: 94.7
O=c1[nH]c(=O)n([C@H]2C[C@H](O)[C@@H](CO)O2)cc1C(F)(F)F [Trifluridine] | inactive: 89.9 | inactive: 88.1
Cc1nnc(SCC2=C(C(=O)O)N3C(=O)[C@@H](NC(=O)Cn4cnnn4)[C@H]3SC2)s1 [Cefazolin sodium salt] | inactive: 96.4 | inactive: 99.5
CC(C)NC(=N)NC(=N)Nc1ccc(Cl)cc1 [Proguanil hydrochloride] | inactive: 100 | inactive: 106
CN(Cc1ccc(C(C)(C)C)cc1)Cc1cccc2ccccc12 [Butenafine Hydrochloride] | inactive: 97.1 | inactive: 84.2
S=c1[nH]cnc2nc[nH]c12 [Mercaptopurine] | inactive: 82.1 | inactive: 84.9
CCCCCCCCNC(C)C(O)c1ccc(SC(C)C)cc1 (stereo not given) [Suloctidil] | inactive: 80.5 | inactive: 84.4
CC(=O)CC(c1ccc([N+](=O)[O-])cc1)c1c(O)c2ccccc2oc1=O (stereo not given) [Acenocoumarol] | inactive: 84.4 | inactive: 82.4
NC(=O)c1ccc[n+]([C@@H]2O[C@H](COP(=O)([O-])OP(=O)(O)OC[C@H]3O[C@@H](n4cnc5c(N)ncnc54)[C@H](O)[C@@H]3O)[C@@H](O)[C@H]2O)c1 [Nadide] | inactive: 85.3 | inactive: 79.3
CNCCC=C1c2ccccc2C=Cc2ccccc21 [Norcyclobenzaprine] | inactive: 83.3 | inactive: 80.6
Cc1ccc(C)c(OCCCC(C)(C)C(=O)O)c1 [Gemfibrozil] | inactive: 86.7 | inactive: 88.3
O=C(CCCN1CCC(O)(c2ccc(Cl)cc2)CC1)c1ccc(F)cc1 [Haloperidol] | inactive: 80.4 | inactive: 80.4
C[C@]12CCC(=O)C=C1C=C[C@@H]1[C@@H]2CC[C@@]2(C)[C@H]1CC[C@@]21CCC(=O)O1 [Canrenone] | inactive: 80 | inactive: 83.7
NC(=O)OCC(O)COc1ccc(Cl)cc1 (stereo not given) [Chlorphensin carbamate] | inactive: 86.3 | inactive: 83.2
CN1C(C(=O)Nc2ccccn2)=C(O)c2ccccc2S1(=O)=O [Piroxicam] | inactive: 90.5 | inactive: 87.8
COCCOC(=O)C1=C(C)NC(C)=C(C(=O)OC(C)C)C1c1cccc([N+](=O)[O-])c1 (stereo not given) [Nimodipine] | inactive: 89.5 | inactive: 88.5
COC(=O)CCc1ccc(OCC(O)CNC(C)C)cc1 (stereo not given) [Esmolol hydrochloride] | inactive: 87.8 | inactive: 82.3
COc1cccc(N(C)C(=S)Oc2ccc3c(c2)CCCC3)n1 [Liranaftate] | inactive: 82.2 | inactive: 83
CCCNC(C)C(=O)Nc1c(C)csc1C(=O)OC (stereo not given) [Articaine hydrochloride] | inactive: 81.9 | inactive: 83
NCCc1cc[nH]n1 [Betazole hydrochloride] | inactive: 94.2 | inactive: 94.2
